In PubChem BioAssay AID1259400 (National Center for Advancing Translational Sciences (NCATS), 2018):
“And” between values parts separate entries of the source, which are not always exact repeats. Equal values may be shown once. Among all 350,000 compounds or so, about 2,100 (0.6%) were called active. The shares of active, inactive and inconclusive entries below differ from those in the screen.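 Rule for the calls: active = activity change of -60% or lower, but not beyond a set lower limit; inconclusive = change between -60% and -40%, or beyond the set limit; inactive = change above -40%.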
% is set by controls: 0 for no effect and ±100 for the full control effect.

These molecules were tested against Relaxin receptor 1 (Homo sapiens) (UniProt Q9HBX9) (assay: qHTS Assay for Antagonists of the Relaxin Receptor RXFP1). Conditions: HEK293-RXFP1, relaxin-stimulated cAMP HTRF, 30 min; at 57.5 µM; hits give low values.
Sequence of UniProt Q9HBX9 (Q9HBX9 whole entry, looked up): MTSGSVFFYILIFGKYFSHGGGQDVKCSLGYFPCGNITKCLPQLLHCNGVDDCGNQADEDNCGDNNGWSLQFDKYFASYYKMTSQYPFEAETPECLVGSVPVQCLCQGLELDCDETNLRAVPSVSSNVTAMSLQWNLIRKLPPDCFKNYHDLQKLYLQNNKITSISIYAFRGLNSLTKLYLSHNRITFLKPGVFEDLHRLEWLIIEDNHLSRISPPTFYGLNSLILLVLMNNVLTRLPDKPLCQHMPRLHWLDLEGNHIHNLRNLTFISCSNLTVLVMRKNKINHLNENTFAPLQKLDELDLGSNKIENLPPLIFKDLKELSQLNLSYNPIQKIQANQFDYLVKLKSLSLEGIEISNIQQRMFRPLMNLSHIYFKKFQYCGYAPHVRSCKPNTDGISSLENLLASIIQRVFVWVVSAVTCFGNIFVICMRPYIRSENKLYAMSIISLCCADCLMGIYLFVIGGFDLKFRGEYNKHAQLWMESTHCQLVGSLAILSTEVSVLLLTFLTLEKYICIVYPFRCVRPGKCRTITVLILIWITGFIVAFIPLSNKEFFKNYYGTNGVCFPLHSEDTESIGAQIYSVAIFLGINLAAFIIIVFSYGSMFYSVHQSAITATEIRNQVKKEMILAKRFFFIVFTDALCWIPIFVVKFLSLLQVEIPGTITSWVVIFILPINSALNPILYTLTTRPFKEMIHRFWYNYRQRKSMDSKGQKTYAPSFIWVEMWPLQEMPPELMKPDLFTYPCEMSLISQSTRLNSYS
In the case of `CCN(CC)C(=O)/C(C#N)=C/c1cc(O)c(O)c([N+](=O)[O-])c1`, the activity change, negative = inhibition is reported as inconclusive: -56.9%.
With `FC(F)Oc1ccc(NC(=S)NC2CCSc3ccccc32)cc1` (stereo not given) the activity change, negative = inhibition was inconclusive: -46.4%.
With `C/C(N)=C(/C#N)C(=O)CSc1nnc(SCc2ccc(Cl)cc2)s1` the activity change, negative = inhibition was inactive: 2.3% and inactive: -9.41%.
For `CC1CCCCC1NC(=O)/C(C#N)=C/c1ccccc1F` (stereo not given), the activity change, negative = inhibition was inconclusive: -46.4%.
`COCCN(C/C=C/c1ccccc1)C/C=C/c1ccccc1` was tested, and the activity change, negative = inhibition was inconclusive: -52.6%.
`Cc1cc(C(=O)COC(=O)c2ccc(O)cc2)c(C)n1-c1ccccc1F` was tested, and the activity change, negative = inhibition was active: -82.8%.
In the case of `CC1=NN(c2nc(-c3ccc(C)cc3)cs2)C(=O)C1N=Nc1cccc(O)c1` (stereo not given), the activity change, negative = inhibition is reported as inconclusive: -49.4%.
With `CCn1nc([N+](=O)[O-])c(C(C#N)c2nc3cc(C(F)(F)F)ccc3s2)c(Cl)c1=O` (stereo not given) the activity change, negative = inhibition was inconclusive: -54%.
In the case of `COc1cccc(-c2nc(SCc3cc(=O)c4ccc(C)c(C)c4[nH]3)n[nH]2)c1`, the activity change, negative = inhibition is reported as inactive: -7.92%.
With `COc1ccc(CCNS(=O)(=O)c2ccc(N3CCCC3=O)cc2)cc1` the activity change, negative = inhibition was inactive: 1.63%.
For `O=C(Nc1ccccc1)C(c1ccccc1)C1CCCC1` (stereo not given), the activity change, negative = inhibition was active: -69.8%.
For `CC(C)(Oc1ccc(Cl)cc1)C(=O)OCC(=O)N1CCN(c2ccccc2)CC1`, the activity change, negative = inhibition was inactive: -22.8%.
`O=C(NCc1nnc2c(C(F)(F)F)cc(Cl)cn12)C1CCCC1` was tested, and the activity change, negative = inhibition was inactive: -2.14%.
With `c1ccc(Nc2nc(-c3ccccn3)cs2)cc1` the activity change, negative = inhibition was inconclusive: -47.1%.
`Cc1ccc(CC2(OCCN(C)C)CCC(C(C)(C)C)CC2)cc1` (stereo not given) was tested, and the activity change, negative = inhibition was inconclusive: -41.3%.
`CC(C)(C)c1cc(C(=O)NNc2ccc(OC(F)(F)F)cc2)n(Cc2ccccc2)n1` was tested, and the activity change, negative = inhibition was inconclusive: -45.5%.
In the case of `CCOC(=O)C1=C(O)c2ccccc2C(=O)/C1=C\c1ccc(C)cc1`, the activity change, negative = inhibition is reported as inconclusive: -50.3%.
With `COc1cccc(N2CCN(C(=O)c3ccc(Cl)c(NC4=NC5CS(=O)(=O)CC5S4)c3)CC2)c1` (stereo not given) the activity change, negative = inhibition was inconclusive: -49.8%.
`COc1ccc(C2CCCN2C(=S)Nc2c(C)cccc2C)cc1OC` (stereo not given) was tested, and the activity change, negative = inhibition was inactive: -24.2%.
With `COc1ccc(Br)cc1CN(C)C(C)C(=O)Nc1cc([N+](=O)[O-])ccc1OC` (stereo not given) the activity change, negative = inhibition was inconclusive: -40%.
For `Cc1ccccc1-c1nnc(CN2CCN(c3cc(Cl)ccc3C)CC2)o1`, the activity change, negative = inhibition was inconclusive: -42.6%.
In the case of `CC1(C(=O)N/N=C/c2ccccc2)CC1(Br)Br` (stereo not given), the activity change, negative = inhibition is reported as inactive: -21.3%.
`Cc1cc(-c2ccc(C)c(S(=O)(=O)N3CCCC(C)C3)c2)on1` (stereo not given) was tested, and the activity change, negative = inhibition was inconclusive: -40.3%.
In the case of `COC(=O)COc1cc(OCC(=O)OC)c2c(C)c(Cl)c(=O)oc2c1`, the activity change, negative = inhibition is reported as inactive: -0.932%.
In the case of `O=C1NN(c2ccccc2)C(=O)/C1=C/c1ccc(-c2ccc(C(=O)O)cc2)o1`, the activity change, negative = inhibition is reported as inactive: 4.62%.
`CCN1CCc2nc3ccccc3c(C(=O)Nc3ccc(F)cc3)c2C1` was tested, and the activity change, negative = inhibition was inactive: -8.25%.
For `CCOc1cccc2sc(N(Cc3cccnc3)C(=O)C3CCCCC3)nc12`, the activity change, negative = inhibition was inconclusive: -52.3%.
`Cc1cc(OC(C)C(=O)N(Cc2ccco2)Cc2ccccc2F)cc(C)c1Cl` (stereo not given) was tested, and the activity change, negative = inhibition was active: -71.9%.
For `CCOC(=O)C1=C(N)OC2=C(C(=O)CC(C)(C)C2)C1C1CCCCC1` (stereo not given), the activity change, negative = inhibition was inconclusive: -43.9%.
With `O=S(=O)(Cc1noc(-c2ccc(Cl)cc2)n1)Cc1ccco1` the activity change, negative = inhibition was inconclusive: -57.8%.
`CC(=O)/C=C1/C(=O)Nc2ccccc21` was tested, and the activity change, negative = inhibition was active: -73%.
For `Cc1cccc(N2CCN(C(=O)c3cn(C4CCCCC4)c(=O)c4c3c3ccccc3n4C)CC2)c1C`, the activity change, negative = inhibition was inconclusive: -44.8%.
With `O=C(C[n+]1cc(Br)cc(Br)c1)c1cccc([N+](=O)[O-])c1` the activity change, negative = inhibition was inconclusive: -40.6%.
For `Cc1ccc(/C=C/c2onc(C)c2S(=O)(=O)N2CCC(C(=O)N3CC(C)Oc4ccccc43)CC2)cc1` (stereo not given), the activity change, negative = inhibition was inactive: 5.35%.
In the case of `CC(C)N(Cc1nc(-c2ccc(Cl)cc2)no1)Cc1nccn1C`, the activity change, negative = inhibition is reported as inconclusive: -41.7%.
For `COc1ccc(OCC(=O)Nc2ccc(C(=O)OCc3cc(=O)n4nc(C)sc4n3)cc2)cc1`, the activity change, negative = inhibition was inactive: 6.48%.
With `COc1ccc(-c2nc(CS(=O)CC(=O)NCc3ccc(F)cc3)c(C)o2)cc1OC` (stereo not given) the activity change, negative = inhibition was inactive: -10.7%.
With `O=C(NCc1ccc2c(c1)OCO2)c1cc(-c2cc(Cl)ccc2O)n[nH]1` the activity change, negative = inhibition was inconclusive: -44.4%.
`COc1ccc(NC(=O)CN(C)C(=O)c2cn(-c3ccccc3)nc2-c2ccc(Cl)cc2)cc1` was tested, and the activity change, negative = inhibition was inconclusive: -54%.
`CC1(C)Cc2c(c(-c3ccco3)nc3sc4c(NCCCO)ncnc4c23)CO1` was tested, and the activity change, negative = inhibition was inactive: 14.1%.
For `CCCN(CCC)CCCNC(=O)c1cc2c(-c3ccc(Cl)cc3)nn(C)c2s1`, the activity change, negative = inhibition was inconclusive: -44.9%.
In the case of `COc1ccccc1-c1c(C)nn2c(N3CCOCC3)cc(C)nc12`, the activity change, negative = inhibition is reported as inactive: 3.63%.
For `CCCCC(CC)C(=O)NCC(C)NC(=O)C(CC)CCCC` (stereo not given), the activity change, negative = inhibition was inactive: 6.41%.
For `COc1ccc(C2(CNC(=O)C(=O)Nc3ccc(C)c(Cl)c3)CCCC2)cc1OC`, the activity change, negative = inhibition was inactive: -6.75%.
In the case of `Clc1ccc(-c2ccc(CNCCSc3nnnn3-c3ccccc3)o2)cc1`, the activity change, negative = inhibition is reported as inconclusive: -51.3%.
`CCc1[nH]c(=O)c(C#N)c2c1CCCC2` was tested, and the activity change, negative = inhibition was inactive: 7.8%.
In the case of `COc1ccc(N(CC(=O)NCCOc2ccccc2)S(=O)(=O)c2ccc(C)cc2)cc1`, the activity change, negative = inhibition is reported as active: -61.7%.
`COc1ccccc1CCNC(=O)c1cc(C2CC2)nc2c1cnn2C(C)C` was tested, and the activity change, negative = inhibition was inconclusive: -52.4%.
`O=C(CCCn1c(=S)[nH]c2cc3c(cc2c1=O)OCO3)N1CCN(C2CCCCC2)CC1` was tested, and the activity change, negative = inhibition was inconclusive: -49.1%.
`O=c1c(-c2ccccc2)coc2c(CN3CCCC3)c(O)ccc12` was tested, and the activity change, negative = inhibition was inactive: -0.968%.
In the case of `CCCNC(=O)CCCCn1c(=S)[nH]c2c([nH]c3ccc(OC)cc32)c1=O`, the activity change, negative = inhibition is reported as inactive: -18.6%.
`C/C(CC(=O)Nc1ccc(C)c(Cl)c1)=N\NC(=O)c1ccccn1` was tested, and the activity change, negative = inhibition was inconclusive: -49.5%.
For `Cc1cc(O)c(C(c2ccc(F)cc2)N2CCN(c3ccccc3)CC2)c(=O)n1Cc1ccco1` (stereo not given), the activity change, negative = inhibition was inconclusive: -40.3%.
With `Cc1cc(-c2ccc(S(=O)(=O)Nc3ccccc3C)cc2)on1` the activity change, negative = inhibition was inactive: 21%.
For `CCc1ccc(C(C)NC(=O)/C(C#N)=C\c2cn[nH]c2-c2ccccc2)cc1` (stereo not given), the activity change, negative = inhibition was inactive: -3.26%.
For `COc1cc(Nc2nc(SCc3ccccc3F)nc3ccccc23)cc(OC)c1`, the activity change, negative = inhibition was inactive: -21.9%.
With `COc1ccc(C[C@@H]2OC3(C=CC(=O)C=C3)O[C@H]2Cc2ccc(OC)cc2)cc1` the activity change, negative = inhibition was active: -92%.
In the case of `Cc1ccc2c(CC(=O)N3CCN(c4cccc(Cl)c4)CC3)coc2c1`, the activity change, negative = inhibition is reported as inconclusive: -43.3%.
For `COc1ccc(CC(=O)NNC(=O)COc2ccc3ccccc3c2)cc1`, the activity change, negative = inhibition was inconclusive: -57.1%.
With `Fc1ccc(CN2CCN(c3ncnc4scc(-c5ccc(F)cc5)c34)CC2)cc1` the activity change, negative = inhibition was active: -67.9%.
For `COc1ccccc1NC(=O)c1nc(S(=O)(=O)Cc2ccccc2)ncc1Cl`, the activity change, negative = inhibition was inconclusive: -56.5%.
With `CCN1CCCC1CNC(=O)c1ccc2c(c1)N(Cc1ccccc1F)C(=O)c1ccccc1S2(=O)=O` (stereo not given) the activity change, negative = inhibition was active: -100%.
For `Cc1csc(=O)n1CCC(=O)OCC(=O)c1c(N)n(C)c(=O)n(C)c1=O`, the activity change, negative = inhibition was inactive: 12.8%.
`Cc1nc2cc(-c3ccc(Cl)cc3)nn2c(NCCN(C)C)c1C` was tested, and the activity change, negative = inhibition was inactive: -8.77%.
With `O=C(CN1CCOCC1)Nc1ccccc1Sc1ccc(Cl)cc1` the activity change, negative = inhibition was inconclusive: -57.6%.
With `CN(C)c1ccc(Cc2cc3c(O)ccc(O)c3cc(Cc3ccc(N(C)C)cc3)c2=O)cc1` the activity change, negative = inhibition was active: -107%.
`Cn1c2ccccc2c2nnc(SCC(=O)Nc3cccc(C(=O)O)c3)nc21` was tested, and the activity change, negative = inhibition was inactive: 2.33%.
`O=C(c1ccc(F)cc1F)N1CCN(c2n[nH]c(=O)[nH]c2=O)CC1` was tested, and the activity change, negative = inhibition was inactive: 18.9%.
In the case of `O=C(c1ccccc1)c1ccc(OCC(O)CNCc2cccc(Cl)c2)cc1` (stereo not given), the activity change, negative = inhibition is reported as inconclusive: -51%.
In the case of `C=CCNc1nc(NCC=C)nc(N2CCN(C(c3ccc(F)cc3)c3ccc(F)cc3)CC2)n1`, the activity change, negative = inhibition is reported as inconclusive: -49%.
In the case of `C=C(CN(C)C)C(=O)c1ccc(C)cc1C`, the activity change, negative = inhibition is reported as active: -80.8%.
`CCCCS(=O)(=O)c1nc(-c2ccc(Br)cc2)cc(-c2ccccc2)c1C#N` was tested, and the activity change, negative = inhibition was inactive: -6.39%.
`Cc1ccc(Oc2c(C(N)=O)cc([N+](=O)[O-])cc2[N+](=O)[O-])cc1` was tested, and the activity change, negative = inhibition was inconclusive: -40.5%.
For `CC1CCc2cc(F)ccc2N1C(=O)CSc1nnc2c(n1)[nH]c1ccccc12` (stereo not given), the activity change, negative = inhibition was active: -62.3%.
For `CC(C)Cc1nnc(NC(=O)CCC(=O)N2CCN(c3ccc([N+](=O)[O-])cc3)CC2)s1`, the activity change, negative = inhibition was inconclusive: -58.5%.
`CCOC(=O)N1CCN(C(=O)c2oc3ccc(S(=O)(=O)N4CC(C)CC(C)C4)cc3c2C)CC1` (stereo not given) was tested, and the activity change, negative = inhibition was inactive: 1.58%.
In the case of `C=CCNC(=O)/C(C#N)=C/c1ccc(OS(=O)(=O)c2ccc(C)cc2)c(OC)c1`, the activity change, negative = inhibition is reported as active: -60.9%.
In the case of `Cc1ccc(CN(Cc2ccco2)C(=O)c2ccc(Cl)cc2)o1`, the activity change, negative = inhibition is reported as inconclusive: -55.6%.
In the case of `O=[N+]([O-])c1ccc(N2CCN(C(=S)NC3CCCCC3)CC2)cc1`, the activity change, negative = inhibition is reported as inactive: -7.02%.
In the case of `COc1ccc(C(=O)c2ccccc2Cl)cc1OC`, the activity change, negative = inhibition is reported as inconclusive: -46.9%.
With `CSc1ccc(/C=C(/Sc2nnc(-c3ccccc3)o2)C(=O)O)cc1` the activity change, negative = inhibition was inconclusive: -45.3%.
In the case of `COc1ccccc1CN1CCC(CNC(=O)c2cnn(-c3ccc(Cl)cc3)c2C2CCN(C(=O)OC(C)(C)C)CC2)CC1`, the activity change, negative = inhibition is reported as active: -61.1%.
In the case of `COc1cc(C(=O)N/N=C/c2ccc(OC(=O)c3cccc(C)c3)cc2)ccc1O`, the activity change, negative = inhibition is reported as inconclusive: -40.9%.
`Cc1cc(N/N=C/c2ccc(O)c(C)c2O)nc(-c2ccccc2O)n1` was tested, and the activity change, negative = inhibition was active: -72.2%.
For `COc1ccc(N2C3=C(CC4=C2CCCC4=O)C(=O)CCC3)cc1`, the activity change, negative = inhibition was inconclusive: -51.1%.
